# Reference: article PMC12040169 (PLOS Biology, 2025)
# The other results are listed elsewhere or left out.
# Tested on: T1, C. trachomatis L2/434/Bu expressing GFP (CTL2-GFP)
# T1 construct: L2/434/Bu GFP intracellular growth in HeLa cells
# Design: species or system HeLa; C. trachomatis total inclusion area by high-content imaging, normalised to DMSO
# Settings: total inclusion area; 28.5 h, 10 µM; inhibitor
# Method in brief: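 Bulk GFP and resorufin signals were read first. Wells were then fixed, stained with Hoechst and imaged to detect GFP inclusions and host nuclei. MICs followed the previously described calculation.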
row,SMILES,% of control remaining
1,CC1CCN(Cc2ccc(-c3ccc(CC(=O)NCc4ccc(C#N)cc4)cn3)cc2)CC1 [CBK158409],90.2345
2,Cc1nc(CC(=O)N2CCCC(c3cccc(Cc4ccc(Cl)cc4)n3)C2)cs1 (stereo not drawn) [CBK286505],66.4056
3,CCc1c(C)nc(SC(C(=O)O)c2ccccc2)c(C#N)c1C (stereo not drawn) [CBK270174],74.4428
4,CC(=O)Nc1ccc(NC2SC(=O)N(c3ccccc3)C2=O)cc1 (stereo not drawn) [CBK085110],132.54
5,Cn1cc(CN[C@@H]2CCC(=O)N[C@H]2c2cc(F)cc(F)c2)cn1 [CBK282913],83.299
6,CC(=O)Nc1cccc(-c2cncc(NCCc3ccccn3)n2)c1 [CBK065359],96.1268
7,CCOC(=O)N1CCN(CCC(=O)Nc2ccc3c(c2)CCC3)CC1 [CBK264220],95.5468
8,C(=N\N=C(/c1ccccc1)C12CN3CN(CN(C3)C1)C2)/c1ccc2c(c1)OCO2 [CBK261816],104.122
9,CCc1nc(CN2CCCC(NCc3ccc(C(N)=O)cc3)C2)no1 (stereo not drawn) [CBK305373],72.9735
10,Cc1cccc(Oc2ccccc2NS(=O)(=O)c2ccc3c(c2)N(CC(=O)O)C(=O)CO3)c1 [CBK295287],93.5571
11,CC(C)Nc1cc(OCCCc2ccncc2)ncn1 [CBK115886],82.2507
12,COc1ccc(OC)c(-n2c(=O)[nH]c3ccccc3c2=O)c1 [CBK287825],63.6246
13,O=C1c2ccccc2C(=O)N1CCN1CCN(Cc2ccccc2)CC1 [CBK074813],66.6013
14,C[C@H]1CN2C[C@H](O)CC2CN1Cc1ccc(Br)s1 (stereo partly drawn) [CBK285439],106.357
15,O=C(O)c1ccc(CN2C(=O)COc3ccccc32)o1 [CBK270276],119.98
16,CCc1ccc(CN(C)C(=O)COC(=O)c2cc(-c3ccccc3)nc3onc(C)c23)cc1 [CBK295334],97.0123
17,Cc1ccn(-c2ccc(N3CCNCC3)nn2)n1 [CBK304680],95.4378
18,COc1cccc(CC(=O)N2CCC(Cc3ccccc3-c3cccs3)(C(N)=O)CC2)c1 [CBK285908],102.972
19,O=C(Cc1ccccc1)N1CCC(c2nc3ccccc3s2)CC1 [CBK070145],95.3448
20,CCc1cccc(C)c1NC(=O)CN(c1ccc(Br)c(C)c1)S(C)(=O)=O [CBK267935],119.949
21,CCCCNc1cc(N(C)Cc2cnn(C)c2)nc(N)n1 [CBK304167],7.8122
22,CN(C)C(=O)c1cc(Br)cnc1NCc1ccc2c(c1)OCO2 [CBK076293],55.442
23,O=C(c1nc2ccccc2s1)C1CCN(C(=O)c2ccco2)CC1 [CBK284234],83.7658
24,COc1cc(CNS(=O)(=O)c2cc3c(NCCN(C)C)nccc3s2)cc(OC)c1OC [CBK038246C],89.9945
25,CCOC(=O)[C@@]12CC=CCN(C(=O)c3ccco3)[C@@H]1CCC2 [CBK284574],104.825
26,COCC(C)NC(=O)c1nn(-c2nc3ccccc3s2)c2ccccc12 (stereo not drawn) [CBK048488],99.4431

row,SMILES,% of control remaining
1,CCN(CC)S(=O)(=O)c1ccc(CNC(=O)Cc2ccc(Cl)cc2)cc1 [CBK306188],85.5606
2,Cc1ccccc1OCc1nnc(SCC(=O)c2ccc3c(c2)Cc2ccccc2-3)n1C [CBK265829],117.875
3,Cc1ccccc1NC(=O)c1cnc2n(c1=O)CCS2 [CBK287374],106.878
4,CCCc1n[nH]c(C2CN(CCn3cccn3)CCO2)n1 (stereo not drawn) [CBK304842],24.1123
5,COc1ccc(NC(=O)c2ccccc2CCc2ccccc2)c([N+](=O)[O-])c1 [CBK268632],89.0265
6,Cn1cc(CCNC(=O)N(Cc2ccccn2)CC2CCCO2)cn1 (stereo not drawn) [CBK306973],85.0313
7,COc1ccc(NC(=O)CC2SC(=N)NC2=O)c([N+](=O)[O-])c1 (stereo not drawn) [CBK265334],96.0681
8,CCCC1(OC(=O)Nc2ccc(Cl)cc2)CCCCC1 [CBK026295],67.6737
9,O=C(O)CCc1ccc(-c2cn3ccnc3c(Nc3ccc(Br)cc3)n2)cc1 [CBK038058],102.927
10,O=C(COc1ccc(-c2ccccc2)cc1)N1CCN(S(=O)(=O)c2ccccc2[N+](=O)[O-])CC1 [CBK264154],121.625
11,Clc1cncc(OC(c2ccccc2)C2CC2)n1 (stereo not drawn) [CBK176042],101.983
12,O=C(O)CC1SC(Nc2cc(C(F)(F)F)cc(C(F)(F)F)c2)=NC1=O (stereo not drawn) [CBK059095],82.7231
13,Cn1ncc(C#N)c1NC(=O)C1CC(c2ccc(Cl)c(Cl)c2)=NO1 (stereo not drawn) [CBK267478],92.4921
14,O=C(/C=C/c1ccc2c(c1)OCO2)N1CCN(C(=O)c2ccco2)CC1 [CBK144459],94.429
15,O=C(O)c1ccc(NS(=O)(=O)Cc2ccccc2[N+](=O)[O-])cc1 [CBK034054],106.669
16,COCC(C)NCc1ccccc1C (stereo not drawn) [CBK027852],69.0995
17,COc1ccc(NC(=S)NC(=O)CN2C(=O)c3ccccc3C2=O)c([N+](=O)[O-])c1 [CBK267594],90.2233
18,O=C(CN1CCCC1)NC1CCCc2c1cnn2-c1ccc(F)cc1 (stereo not drawn) [CBK283930],82.4137
19,COc1ccc(Nc2cc(Cl)ccc2C(=O)NC(C)(C)CN2CCOCC2)cn1 [CBK107436],93.3272
20,Nc1nc2n(n1)C(c1ccccc1)C1=C(CCCC1)N2 (stereo not drawn) [CBK287949],101.897
21,Nc1nnc(Sc2nc3ccccc3nc2C(F)(F)F)s1 [CBK093795],93.6474
22,CNC(=O)c1cc(-c2cccc(C)c2)oc1C [CBK047432],95.485
23,CC(C)[C@@H](CO)Nc1cncc(-c2ccc(F)cc2F)n1 [CBK065875],106.785
24,O=C(c1ccc(F)cc1)C1CCN(Cc2cc(=O)[nH]c(=O)[nH]2)CC1 [CBK149132],87.3079
25,Cc1noc(C)c1CN(C)C(C)C(=O)Nc1nccs1 (stereo not drawn) [CBK304826],36.3642
